Assay results reported in PubChem BioAssay AID485294 (National Center for Advancing Translational Sciences (NCATS), 2010).
The campaign covered roughly 370,000 compounds. About 150 (0.041%) were called active. The shares of active, inactive and inconclusive entries below differ from those in the screen. Calls follow the shape of the dose curve; as a rule, active = well fitted inhibition curve with a large enough effect; inconclusive = small, poorly fitted or top-dose-only effect; inactive = flat fitted curve, though single readings scatter. Potencies of inconclusive entries are left out as doubtful fits.
Also: nearly all actives have a fitted effect of over 25% in size.
Potency is read from the fitted curve at half-maximal effect; tags tell the direction and shape of the fitted curve.

Each compound was assayed against Beta-lactamase (Escherichia coli (strain K12)) (UniProt P00811) (assay: qHTS Inhibitors of AmpC Beta-Lactamase (assay with detergent)). Details: AmpC hydrolysis of nitrocefin, absorbance 480 nm, 0.01% Triton; series mostly up to 114 µM.
UniProt P00811, sequence (P00811 whole entry, looked up): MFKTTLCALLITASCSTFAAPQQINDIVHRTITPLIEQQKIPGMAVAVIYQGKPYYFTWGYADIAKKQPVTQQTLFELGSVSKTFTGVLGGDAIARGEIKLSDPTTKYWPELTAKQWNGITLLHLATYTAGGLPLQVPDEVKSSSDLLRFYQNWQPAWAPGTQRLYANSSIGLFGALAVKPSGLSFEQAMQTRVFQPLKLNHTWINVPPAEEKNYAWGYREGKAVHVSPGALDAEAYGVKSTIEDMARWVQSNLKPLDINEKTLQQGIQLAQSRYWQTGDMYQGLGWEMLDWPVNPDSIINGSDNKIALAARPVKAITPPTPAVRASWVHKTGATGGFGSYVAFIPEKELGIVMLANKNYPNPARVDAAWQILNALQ
Method in brief: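 AmpC (5.3 nM in the dispensed reagent) in 20 mM phosphate pH 7.0 with 0.01% (detergent screen) or 0.0001% Triton X-100 was preincubated with compounds for 15 min at room temperature. Nitrocefin was then added from an 800 uM solution, and hydrolysis was followed at 480 nm.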
With `COc1cc(C(=O)OCC(=O)NC(=O)NC2CCCCC2)cc(Cl)c1OC` the Potency was “inactive”. `COc1cccc(C2CC(=O)N3CN(C4CCCCC4)CSC3=C2C#N)c1` (centres undefined) was tested, and the Potency was “inactive”. For `O=C(ON=C1CCN(S(=O)(=O)c2ccccc2)CC1)c1ccccc1`, the Potency was inconclusive [inhibitor, single point]. For `COc1ccc(-c2noc(CCCC(=O)NCC3CCCO3)n2)cc1` (centres undefined), the Potency was inconclusive [inhibitor, full curve]. `O=C(Nc1nnc(SCc2ccc(F)cc2)s1)c1cccnc1Cl` was tested, and the Potency was inconclusive [inhibitor, full curve]. With `CCOC(=O)c1c(C)[nH]c(CCC(=O)NCc2ccccc2C)c1C` the Potency was “inactive”. For `Cc1ccc(NC(=O)CNCc2ccccc2)c(Br)c1`, the Potency was “inactive”. In the case of `CCOc1cc(/C=N/NC(=O)c2ccc(-c3csc(Nc4ccc(C)cc4)n3)cc2)ccc1OCC(=O)O`, the Potency is reported as “inactive”. `CC(C)CCn1c(SCC(N)=O)nc2c1c(=O)n(C)c(=O)n2C` was tested, and the Potency was inconclusive [inhibitor, full curve, poor fit]. For `Cc1onc(-c2ccccc2Cl)c1C(=O)NCCn1c(C)cc2ccccc21`, the Potency was “inactive”. With `Cc1cc(C(F)(F)F)nc(Nc2nc(C)c3ccccc3n2)n1` the Potency was “inactive”. With `O=C(Nc1cccc(C(F)(F)F)c1)c1cccnc1NCCO` the Potency was inconclusive [inhibitor, single point]. `O=C1C(Cl)=C(N2CCOCC2)C(=O)N1c1ccccc1` was tested, and the Potency was inconclusive [inhibitor, full curve, poor fit]. In the case of `O=C(NNC(=O)c1ccccc1[N+](=O)[O-])c1ccccc1[N+](=O)[O-]`, the Potency is reported as inconclusive [inhibitor, full curve, poor fit]. For `O=C(Nc1ccc(NC(=O)c2cccs2)cc1)c1ccc2c(c1)OCO2`, the Potency was “inactive”. For `Cc1ccc(-c2nc(S(=O)(=O)c3ccc(C)cc3)c(SCC(=O)NC3CCCCC3)o2)cc1`, the Potency was inconclusive [inhibitor, single point]. In the case of `COc1ccccc1CNC(=O)CCC1N=C2c3ccccc3N=C(SCC(=O)NCCc3ccc(OC)c(OC)c3)N2C1=O` (centres undefined), the Potency is reported as “inactive”. With `O=C(NCC(=O)N(Cc1cccs1)C(C(=O)NC1CCCCC1)c1ccncc1)c1ccco1` (centres undefined) the Potency was inconclusive [inhibitor, full curve, poor fit]. With `N#Cc1ccccc1OCC(=O)OCC(=O)NC1CCS(=O)(=O)C1` (centres undefined) the Potency was inconclusive [inhibitor, single point]. For `Cc1n[nH]c(=S)n1/N=C/c1ccc(OCc2ccc(Cl)cc2Cl)cc1`, the Potency was inconclusive [inhibitor, single point]. `COc1cccc(NC(=O)c2cc3c(=O)n(Cc4cccnc4)ccc3nc2C)c1` was tested, and the Potency was “inactive”. In the case of `COc1ccc(-c2noc(N3CCC(C(=O)Nc4ccccc4Cl)CC3)n2)cc1`, the Potency is reported as inconclusive [inhibitor, full curve]. With `Nc1c(C(O)(C(F)(F)F)C(F)(F)F)cc(C(O)(C(F)(F)F)C(F)(F)F)c2ccccc12` the Potency was inconclusive [inhibitor, partial curve, poor fit]. `CCS(=O)(=O)c1ccc2oc(SCC(=O)NCCc3ccc(OC)cc3)nc2c1` was tested, and the Potency was “inactive”. For `CC(C)[C@H](NC(=O)OC(C)(C)C)c1nnc(S(=O)(=O)Cc2c(F)cccc2Cl)o1`, the Potency was active: 2 µM. For `CN1CCN(C(=O)c2cc3c(n(-c4ccccc4)c2=O)CC(C)(C)CC3=O)CC1`, the Potency was inconclusive [inhibitor, full curve]. For `CCC(=O)c1ccc(OCC(O)CN2CCc3ccccc3C2)cc1` (centres undefined), the Potency was inconclusive [inhibitor, partial curve, poor fit]. For `O=C(Nc1ccc(S(=O)(=O)Nc2cnc3ccccc3n2)cc1)c1ccc(Cl)c([N+](=O)[O-])c1`, the Potency was inconclusive [inhibitor, full curve, poor fit]. For `CN(C)CCCNc1ccc(S(N)(=O)=O)cc1[N+](=O)[O-]`, the Potency was inconclusive [inhibitor, full curve, poor fit]. In the case of `Cn1c(SCC(=O)Nc2ccc(F)cc2F)nnc1-c1cccnc1`, the Potency is reported as inconclusive [inhibitor, partial curve]. `Cc1ccc2c(CC(=O)OCc3nc(N)nc(Nc4ccccc4C)n3)coc2c1` was tested, and the Potency was inconclusive [inhibitor, full curve, poor fit]. For `O=C(NCCc1ccccc1)c1ccc(NC(=O)c2cccnc2)cc1`, the Potency was “inactive”. `Cc1cc2cc(CN(Cc3ccco3)C(=S)NCC3CCCO3)c(=O)[nH]c2cc1C` (centres undefined) was tested, and the Potency was inconclusive [inhibitor, full curve, poor fit]. In the case of `Cc1ccc(-c2nn3c(-c4ccc(C)cc4)nnc3c3ccccc23)cc1`, the Potency is reported as “inactive”. For `C#CCOCCOCCOCCNc1nc(N2CCN(C(=O)Cn3cc(CCCN=C(N)N)nn3)CC2)nc(N2CCN(C(=O)[C@H](CCCCN)n3cc(CCCC)nn3)CC2)n1`, the Potency was “inactive”. With `CCCn1c(=O)c(C(=O)Nc2ccccc2C)c(O)c2ccccc21` the Potency was inconclusive [inhibitor, partial curve, poor fit]. For `O=C(c1cnc(-c2ccc(Cl)cc2)s1)c1ccc(Cl)cc1Cl`, the Potency was inconclusive [inhibitor, partial curve, poor fit]. `COc1ccc(C2C=C(c3ccc(C)c(C)c3)Nc3ncnn32)c(OC)c1OC` (centres undefined) was tested, and the Potency was inconclusive [inhibitor, full curve, poor fit]. For `O=C1N=C(N2CCCC2)CN1c1ccccc1`, the Potency was inconclusive [inhibitor, full curve, poor fit]. With `Oc1ccccc1N=Cc1ccc[nH]1` the Potency was inconclusive [inhibitor, full curve, poor fit]. `Cc1csc(NC(=O)CCn2c(=O)oc3ccc(Cl)cc32)n1` was tested, and the Potency was inconclusive [inhibitor, partial curve]. For `CCOC(=O)C1(CCc2ccccc2)CCN(C(=O)CCc2cnccn2)CC1`, the Potency was inconclusive [inhibitor, single point]. For `Cc1ccc2nc(SCC(=O)Nc3nonc3C)[nH]c2c1`, the Potency was inconclusive [inhibitor, single point]. In the case of `COc1ccc(-c2noc(CN(C)Cc3ccccc3)n2)c(OC)c1OC`, the Potency is reported as “inactive”. For `O=C(CSCc1ccc(F)cc1)NCc1cccs1`, the Potency was inconclusive [inhibitor, partial curve]. In the case of `CC(NC(=O)Cn1cnc2c1c(=O)n(C)c(=O)n2C)c1ccccc1` (centres undefined), the Potency is reported as inconclusive [inhibitor, full curve, poor fit]. For `Brc1ccccc1-c1nnc2sc(Cc3ccccc3)nn12`, the Potency was inconclusive [inhibitor, single point]. `Cc1ccc(N(Cc2cccs2)C(=O)COc2ccccc2[N+](=O)[O-])cc1` was tested, and the Potency was “inactive”. For `CCOC(=O)COn1c(=O)c(-c2ccc(C)cc2)[n+]([O-])c2ccccc21`, the Potency was “inactive”. In the case of `Cc1ccc(NC(=O)CCc2c(C)nc3nc(C)nn3c2C)c(Cl)c1`, the Potency is reported as “inactive”. For `O=C(Nc1ccccc1C(=O)Nc1ccccc1)c1ccccc1F`, the Potency was “inactive”. In the case of `CCOC(=O)C1=C(c2ccccc2)NC(=O)NC1c1ccc(O)c(Cl)c1` (centres undefined), the Potency is reported as “inactive”. `C[C@]12CC[C@H](OS(=O)(=O)O)CC1=CC[C@@H]1[C@@H]2CC[C@]2(C)C(=O)CC[C@@H]12` was tested, and the Potency was inconclusive [inhibitor, full curve, poor fit]. `C=CCC(=O)N1CCCC(C(=O)c2ccc(Cl)cc2)C1` (centres undefined) was tested, and the Potency was inconclusive [inhibitor, full curve, poor fit]. In the case of `O=c1[nH]cnc2nn(-c3ccccc3)nc12`, the Potency is reported as “inactive”. For `OCCNc1c2c(nc3ccccc13)CCCC2`, the Potency was “inactive”. For `CC1(C)Cc2cccc(OCC(=O)Nc3nccs3)c2O1`, the Potency was inconclusive [inhibitor, full curve]. For `COc1ccc(NC(=O)CN2C(=O)c3ccccc3S2(=O)=O)cc1S(=O)(=O)N1CCOCC1`, the Potency was “inactive”. With `Cn1nccc1C(=O)N1CCN(c2ccccc2Cl)CC1` the Potency was inconclusive [inhibitor, partial curve, poor fit]. In the case of `COC(=O)C(C(=O)OC)C(CC(=O)c1ccc(C)cc1)c1cc(OC)c(OC)c(OC)c1` (centres undefined), the Potency is reported as inconclusive [inhibitor, single point]. In the case of `COc1cc(CN2CCN(C(=O)c3ccc(-c4ccccc4)cc3)CC2)cc(OC)c1OC`, the Potency is reported as “inactive”. In the case of `COc1ccc(-c2cc3c(nn2)-c2ccccc2C3=O)cc1`, the Potency is reported as inconclusive [inhibitor, full curve, poor fit]. `CCn1cc(/C=N/NC(=O)c2ccc3c(c2)OCO3)cn1` was tested, and the Potency was inconclusive [inhibitor, full curve, poor fit]. In the case of `O=C(Cc1cccs1)N(Cc1cccs1)C1(C(=O)NC2CCCC2)CCCCC1`, the Potency is reported as “inactive”. For `Cc1ccc(NC(=O)N(C2CCCCC2)C(C)c2cccnc2)cc1C` (centres undefined), the Potency was inconclusive [inhibitor, full curve, poor fit]. In the case of `COc1ccc(CNCc2ccc([N+](=O)[O-])cc2)cc1OC`, the Potency is reported as inconclusive [inhibitor, full curve]. In the case of `O=C(Nc1ccc(F)cc1F)c1cc(Cl)sc1Cl`, the Potency is reported as inconclusive [inhibitor, partial curve, poor fit]. With `C=C(C)c1cccc(C(C)(C)NC(=O)Nc2ccc(OC)nc2)c1` the Potency was inconclusive [inhibitor, partial curve, poor fit]. In the case of `CCCC(=O)Nc1nc2ccc(NC(=O)c3cccnc3)cc2s1`, the Potency is reported as inconclusive [inhibitor, full curve, poor fit].
